# According to PubChem BioAssay AID588855 (National Center for Advancing Translational Sciences (NCATS), 2011):
# The whole screen tested about 410,000 compounds, of which about 5,000 (1.2%) were called active. This list was built around the results that the source calls inconclusive (neither active nor inactive); the mix of calls is not that of the screen. Calls follow the shape of the dose curve; as a rule, active = well fitted inhibition curve with a large enough effect; inconclusive = small, poorly fitted or top-dose-only effect; inactive = no such curve, though single readings can be large or run the other way. A potency beside an inconclusive call is a rough fit, not a confirmed value.
# Test: qHTS for Inhibitors of TGF-b; also: nearly all actives have a fitted effect of over 65% in size
# Conditions: HepG2 CAGA-GFP TGF-b/SMAD3 reporter, GFP fluorescence, 18 h, TGF-beta stimulated, 500 pg/mL final; series mostly up to 46.1 µM
# Procedure, shortened: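 Inhibition was scored as loss of TGF-beta-induced (500 pg/mL final, 18 hours, 37 degrees C) GFP in HEPG2 cells carrying a CAGA-GFP reporter, in DMEM with 1% FBS. Well GFP was summed per cell; Activity was normalised to unstimulated and stimulated DMSO wells, then concentration-response fitting.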
# Potency is read from the fitted curve at half-maximal effect; tags tell the direction and shape of the fitted curve.
row,Compound,Potency
1,CN(C)CCCNC(=O)C[C@H]1C[C@H](C(=O)N2CCCCC2)[C@@]2(C)c3[nH]c4cc(-c5ccco5)ccc4c3CCN2C1=O,"inconclusive: 15.8 µM [inhibitor, single point]"
2,COc1ccc(C(=O)CN2C(=O)NC(C)(c3ccccc3)C2=O)cc1OC (stereo not given),"inconclusive: 35.5 µM [inhibitor, partial curve, poor fit]"
3,Cc1cccc(Cn2c(=O)n(CC3CCC(C(=O)NC(C)C)CC3)c(=O)c3sccc32)c1 (stereo not given),"inconclusive: 3.16 µM [inhibitor, partial curve, poor fit]"
4,Cc1cc(NC(=O)CCSc2nc(-c3ccco3)cc(C(F)(F)F)n2)no1,"inconclusive: 6.31 µM [inhibitor, single point]"
5,CCN(CC)CCCNC(=S)N1CCN(c2nc(-c3ccccc3)cs2)CC1,"inconclusive: 35.5 µM [inhibitor, single point]"
6,Cc1ccc(S(=O)(=O)Nc2cc(=O)[nH]c(SCC(=O)Nc3ccccc3Cl)n2)cc1,"inconclusive: 14.1 µM [inhibitor, single point]"
7,CCOC(=O)CSc1n[nH]c(NC(=O)NC(C)C)n1,"inconclusive: 3.16 µM [inhibitor, single point]"
8,CCOC(=O)c1c(-c2ccccc2)csc1NC(=O)CSc1nnc(C)s1,"inconclusive: 22.4 µM [inhibitor, single point]"
9,C/C(CC(=O)Nc1ccc(N(C)C)cc1)=N\NC(=O)c1ccccc1O,inactive
10,CCOC(=O)CNC(=O)CSc1cn(CC(=O)N2CCCCCC2)c2ccccc12,"inconclusive: 2.82 µM [inhibitor, partial curve]"
11,CCCC(=O)NC(NC(=S)Nc1ccc(N=Nc2ccccc2)cc1)C(Cl)(Cl)Cl (stereo not given),"inconclusive: 15.8 µM [inhibitor, partial curve, poor fit]"
12,CN(Cc1ccccc1)C(=O)C1CCN(S(=O)(=O)c2ccc3c(c2)oc(=O)n3C)CC1,inactive
13,CC(=O)Nc1ccc(OCC=C(Cl)Cl)cc1,inactive
14,C(=N\N1CCN(C2c3ccccc3-c3ccccc32)CC1)/c1cccnc1,inactive
15,CN1C[C@@H]2[C@@H]3C(=O)N(Cc4ccccc4)C(=O)[C@@H]3[C@](C)(C1=O)N2C(=O)c1ccc(Br)cc1,"inconclusive: 0.126 µM [inhibitor, full curve, poor fit]"
16,O=C(CN1CCCCC1)Nc1cccc(Cl)c1,"inconclusive: 2.24 µM [inhibitor, partial curve]"
17,Cc1cccc(C(=O)Nc2nnc(S(=O)(=O)N(C)Cc3ccc(Cl)cc3)s2)c1,"inconclusive: 10 µM [inhibitor, partial curve, poor fit]"
18,C/C(Nc1ccc(Cl)cc1)=C(/C#N)C(N)=O,"inconclusive: 35.5 µM [inhibitor, single point]"
19,Cc1cc(C)cc(Cn2ncc(Cl)c(Cl)c2=O)c1,"inconclusive: 20 µM [inhibitor, single point]"
20,CC(C)Oc1ccc(C(CCNCc2ccc(O)cc2)c2ccccc2)cc1 (stereo not given),active: 14.1 µM

row,Compound,Potency
1,Cc1cc(C)c(NC(=O)CCN2C(=O)c3ccccc3Sc3ncccc32)c(C)c1,"inconclusive: 6.31 µM [inhibitor, single point]"
2,Cc1cccc(Nc2nc(-c3ccc(O)cc3O)cs2)n1,"inconclusive: 35.5 µM [inhibitor, single point]"
3,COc1ccc(Cc2nc3ccc(C(=O)NCc4cc(C)no4)cc3o2)cc1,inactive
4,Cc1nc2cc(C(=O)NCCC3=CCCCC3)ccc2n1-c1ccc(Br)cc1,"inconclusive: 35.5 µM [inhibitor, single point]"
5,CCc1nn(CC(=O)NCC(C)c2ccccc2)c(=O)c2cc3occc3n12 (stereo not given),"inconclusive: 35.5 µM [inhibitor, single point]"
6,C=CCOc1ccccc1CN1CCC(Oc2ccc(C(=O)N3CCCC3)cc2)CC1,"inconclusive: 14.1 µM [inhibitor, single point]"
7,CCC(=O)NC(c1ccco1)c1cc(Br)c2cccnc2c1O (stereo not given),active: 3.98 µM
8,O=C(CN(c1ccc(Cl)cc1)S(=O)(=O)c1ccc(Cl)c([N+](=O)[O-])c1)NCCc1ccc(F)cc1,"inconclusive: 6.31 µM [inhibitor, single point]"
9,Cc1cc2nc(/C(C#N)=C/c3ccncc3)[nH]c2cc1C,inactive
10,O=C(CCc1ccccc1)Nc1ccc(S(=O)(=O)NC2=NCCCCC2)cc1,"inconclusive: 0.562 µM [inhibitor, full curve, poor fit]"
11,Fc1cccc(-c2cc3nc4c(c(N5CCC6(CC5)OCCO6)n3n2)CCCC4)c1,inactive
12,CCc1ccc(OCCCC(=O)Nc2ccc(S(N)(=O)=O)cc2)cc1,"inconclusive: 3.98 µM [inhibitor, partial curve, poor fit]"
13,Clc1ccccc1CNc1ncnc2c1nc1n2CCCC1,"inconclusive: 2.82 µM [inhibitor, full curve, poor fit]"
14,CN(CCc1ccccc1)C(C(=O)Nc1ccc2c(c1)OCCO2)c1ccnc2ccccc12 (stereo not given),"inconclusive: 28.2 µM [inhibitor, single point]"
15,COc1ccccc1-c1cccc([C@@H]2C[C@H]3[C@H](CON3C)CN2Cc2ccccc2)c1,"inconclusive: 35.5 µM [inhibitor, single point]"
16,O=C(CCNC(=O)c1ccccc1Cl)Nc1nc2ccccc2[nH]1,"inconclusive: 0.794 µM [inhibitor, full curve, poor fit]"
17,CCN(CC)c1nc2c(S(=O)(=O)c3ccccc3)nnn2c2ccc(Cl)cc12,"inconclusive: 3.55 µM [inhibitor, full curve, poor fit]"
18,COc1ccccc1N1CCN(C(=O)c2sc3nc(-c4ccccc4)cn3c2C)CC1,inactive
19,CCOc1ccccc1CNC(=O)c1nc(-c2ccc(Cl)cc2)n2c1CCCCC2,"inconclusive: 17.8 µM [inhibitor, single point]"
20,O=C(CSc1nc(=O)n(CCN2CCOCC2)c2c1CCC2)Nc1ccc(OC(F)(F)F)cc1,"inconclusive: 11.2 µM [inhibitor, partial curve]"
